Our source for the binding signal values is publication PMC10668032.

The list shows a part of the results. At the low end of the ranking the order means little.

The target of this experiment is SIX1 homeodomain (reference allele) (UniProt Q15475). Description: universal protein binding microarray. To be noted: Universal all-10-mer PBM (8x60K, AMADID 030236), 300 nM GST-tagged protein, Alexa Fluor 488 anti-GST; buffer, salt, pH and temperature not stated; high values mean tight binding; most listed sequences are background and not binding sites; double strand, one strand shown.
With ATGCTTGA, the binding signal came to 0.0366 E-score. In the case of CAAAGCGA it was -0.000185 E-score; in that of CGGTCCGC, -0.254 E-score. In the case of ATTTCTCC it was -0.162 E-score.

In the case of CAGGCCGA, the binding signal was -0.0503 E-score.

Turning to GCAACAGA, the binding signal was -0.178 E-score. Take CGCCAGTC: the binding signal is -0.165 E-score. Next, ATCTGAAG: -0.0239 E-score. Next, CAGTCTAC: -0.138 E-score; CCAGAGCG: -0.199 E-score; GCGAACCA: -0.103 E-score.

Regarding CCAATCTA, the binding signal turned out to be 0.0617 E-score. In the case of ACCCGGCT it was 0.22 E-score; in that of CGCACAAG, -0.151 E-score; in that of CCTCCTCC, 0.103 E-score. With GCTGATTA, the binding signal came out at 0.0603 E-score.

In the case of ACTTGCCT, the binding signal was -0.0635 E-score. Next, GCTAAAGA: -0.11 E-score; AGCCATTG: -0.00278 E-score. In the case of ATGCAGGC, the binding signal was -0.104 E-score. For the sequence CCCGTGCG, the binding signal turned out to be 0.147 E-score. As for ACCCCCTG, the binding signal came to 0.134 E-score. In the case of GAGCGCCA it was -0.0817 E-score; in that of AATAAGTA, -0.0797 E-score.

On to CCACCAAC, for which the binding signal is -0.0718 E-score. Next, GCTGAACC: -0.106 E-score.

Turning to GAGAAAAC, the binding signal was -0.146 E-score. In the case of AACCGCAC it was -0.254 E-score; in that of CCAGACTC, -0.0889 E-score; in that of ATGCCGGC, 0.0235 E-score. Turning to GATAAACC, the binding signal came out at 0.141 E-score. In the case of GTCCCGTA it was -0.129 E-score; in that of AGGGGGAG, -0.163 E-score; in that of ATGATTCC, 0.197 E-score. As to GGCATGAA, the binding signal is -0.00775 E-score. AAAATAGC: the binding signal was -0.338 E-score. Regarding AATTCACG, the binding signal is -0.143 E-score. For CGGAATAC, the binding signal is 0.154 E-score. In the case of AATAAATT it was -0.18 E-score; in that of AGGCGCGG, -0.038 E-score. Turning to GCTACCCC, the binding signal turned out to be 0.158 E-score.

With AGTCTAGA, the binding signal worked out at 0.0847 E-score.

In the case of ATCTTATA, the binding signal amounted to 0.275 E-score. On to AAAAGGCA, for which the binding signal is -0.12 E-score. As for GAGACAGA, the binding signal was found to be 0.0639 E-score.

For the sequence CAGAAAAA, the binding signal was -0.3 E-score. CCTATGGC: the binding signal was -0.115 E-score. Next, CACTTGGG: -0.233 E-score; AGAGCTAC: -0.0799 E-score. As to GTCCCAGA, the binding signal is -0.0915 E-score.

For CACTGGCA, the binding signal came to 0.0184 E-score. In the case of CCGATATC it was 0.457 E-score; in that of AGATGCAC, 0.131 E-score. On to ATATCTCG, for which the binding signal worked out at 0.378 E-score. Next, AATTTACG: -0.313 E-score. Turning to CTCTCCAC, the binding signal worked out at 0.0103 E-score. Next, ACAACTTA: -0.136 E-score; TGAAACAA: -0.16 E-score; CGAGGATA: 0.384 E-score. As for CAGTATGC, the binding signal was -0.18 E-score. Take CTGTACTC: the binding signal was -0.141 E-score.

With AAATGACG, the binding signal was -0.0885 E-score. In the case of AACTTCTC it was -0.0564 E-score; in that of GATTACGA, 0.0593 E-score.

Regarding GACCAGTC, the binding signal is -0.23 E-score. Next, CTTGAGGA: -0.0199 E-score; CTTGTGTC: 0.0364 E-score; TTCCACAA: 0.00992 E-score. Next, AAAGCCTT: -0.263 E-score; AAAATGCC: -0.0903 E-score. On to CCATAAGA, for which the binding signal came out at 0.043 E-score. Turning to GAGTCACC, the binding signal is -0.158 E-score. As for CTGAGGCC, the binding signal was -0.148 E-score. Turning to AACCATCA, the binding signal is -0.183 E-score.

For CGATATCG, the binding signal turned out to be 0.439 E-score. Next, ACTACGGG: 0.0779 E-score; AAACGATC: 0.216 E-score; CCTTCAAC: -0.184 E-score.

As to AACCAGGC, the binding signal was -0.113 E-score. Regarding TGATTAAA, the binding signal was -0.0609 E-score. For AGGAGGAT, the binding signal was 0.316 E-score. In the case of CTCAATGC, the binding signal is 0.0418 E-score. On to AAGCGACC, for which the binding signal was -0.109 E-score.

As to AGATCCAC, the binding signal came to 0.308 E-score.

For the sequence CCACGGGG, the binding signal came out at 0.0561 E-score. Turning to GGACAAAA, the binding signal is -0.256 E-score.

As to CATCTTAA, the binding signal was -0.0495 E-score. In the case of ACCTGCAG it was 0.0108 E-score; in that of TTACTGAA, 0.00381 E-score. CCGGGTCA: the binding signal was determined as 0.265 E-score. With AGATTAGG, the binding signal was determined as 0.0406 E-score. Next, CTAGTCCC: -0.143 E-score; TCTTAAAA: -0.106 E-score; TGCTCTAA: -0.149 E-score.

In the case of CTCTGTCC, the binding signal is -0.0971 E-score.

Take GTCTACGA: the binding signal is -0.219 E-score. For CATTTGGC, the binding signal is -0.162 E-score. Next, ATAGTGTA: 0.205 E-score; CCCGCTTC: -0.115 E-score; CTAACCTC: -0.104 E-score. With ATCGCGAG, the binding signal is 0.198 E-score. As for AGCTATAG, the binding signal is -0.0499 E-score. Regarding AGCGTCCC, the binding signal was -0.0405 E-score.

AGCGCCTC: the binding signal was -0.229 E-score. With TACATAAA, the binding signal came out at 0.149 E-score. Next, AGCGTTAC: -0.186 E-score; AATGGTAA: -0.173 E-score. In the case of TGACTACA it was -0.139 E-score.

With CTTCAATC, the binding signal is -0.106 E-score. In the case of ACCCAGAA it was -0.0523 E-score; in that of CGCTAAGC, -0.11 E-score; in that of CAGCGCGG, 0.0111 E-score. Turning to GACGGCTA, the binding signal stood at 0.0286 E-score. With AGAACTCT, the binding signal is -0.115 E-score.

For AAGGCAAT, the binding signal was -0.165 E-score. In the case of AATTACTG it was -0.0632 E-score. Next, AGCACGAC: -0.234 E-score.

ATTAACCC: the binding signal was determined as 0.129 E-score. As to AATAAAAG, the binding signal is -0.262 E-score. TAAAAAGA: the binding signal was -0.185 E-score. Regarding CATTCGAA, the binding signal is -0.22 E-score. As to AGCAATGC, the binding signal is -0.128 E-score. In the case of ACGGGGGG it was -0.0613 E-score. On to ATCAACCC, for which the binding signal amounted to 0.336 E-score. For CAAGACGG, the binding signal amounted to 0.112 E-score. Next, CTAGTACC: -0.017 E-score; AAACGGAC: -0.16 E-score. ACCCTGCG: the binding signal came to 0.00917 E-score. Next, CCCTTATA: 0.0926 E-score; CCAAAGCC: -0.367 E-score; CAGAAATG: -0.0902 E-score.

As for CTCTAGTA, the binding signal turned out to be 0.0845 E-score. In the case of AGGAGCAC it was -0.0928 E-score; in that of ACGGAAGA, 0.0394 E-score; in that of AACGTATA, 0.167 E-score. CCGTTGCA: the binding signal is -0.118 E-score. For CTGTCATA, the binding signal was -0.105 E-score. Next, AACCTCCC: -0.0286 E-score; GTCAACTA: -0.101 E-score; AGGCGAAG: -0.00643 E-score. Regarding CTGAGTTC, the binding signal was -0.0295 E-score. Next, GTCACGAA: 0.0421 E-score; TCGTTCAA: -0.127 E-score. Next, AACAACGG: -0.132 E-score; ACGACTCT: -0.0206 E-score. With AAACCACC, the binding signal was -0.0121 E-score.

For AGCTAATA, the binding signal came to 0.0464 E-score.

Regarding CCAGTGCA, the binding signal is -0.0821 E-score. Turning to AGGTTAGA, the binding signal was -0.176 E-score. In the case of GCAATCGA it was -0.014 E-score; in that of CGATAGAA, -0.0265 E-score; in that of AATTTGAA, -0.211 E-score. Next, AACCAATT: -0.136 E-score; CTTTGTAC: -0.249 E-score.

On to ACATAGAA, for which the binding signal was -0.113 E-score. CTATGACA: the binding signal is 0.00261 E-score. For ATTTCTCA, the binding signal is -0.166 E-score. Consider AAGTGATA, for which the binding signal was 0.397 E-score.

Take GGAGATAA: the binding signal was determined as 0.0297 E-score. On to GCTCCATA, for which the binding signal was -0.0388 E-score. Next, TCCATAGA: -0.132 E-score; ACCGAGTA: 0.103 E-score; AGCCTTGG: -0.117 E-score. CGTAAATC: the binding signal is -0.127 E-score. Next, CCTCAACC: -0.144 E-score; AAGCTTCT: -0.0108 E-score. In the case of TACTGCAA it was 0.163 E-score.

As for GATTCAAC, the binding signal is -0.0707 E-score. In the case of ACGGTGAA, the binding signal was -0.00634 E-score. On to CGGGGTCA, for which the binding signal turned out to be 0.221 E-score. Turning to CACACAGA, the binding signal was 0.0258 E-score. CAGGGCAA: the binding signal is -0.104 E-score.
